Results: PubChem BioAssay AID651820 (National Center for Advancing Translational Sciences (NCATS), 2012)
In all, about 340,000 compounds went through this assay and about 12,000 (3.5%) were called active. Inconclusive results, whose numbers are uncertain, are shown with a selection of clear calls. The call rests on the fitted dose curve; in most records, active means well fitted inhibition curve with a large enough effect; inconclusive means small, poorly fitted or top-dose-only effect, or another doubt; inactive means no such curve, though single readings can be large or run the other way. Potencies of inconclusive entries are left out as doubtful fits.

Assay: qHTS Assay for Inhibitors of Hepatitis C Virus (HCV)
Settings: Huh7.5.1 HCVcc-Cre (HCVcc is cell-culture hepatitis C virus) infection, luciferase reporter, 44 h; series mostly up to 41.8 µM
Summary of the method: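 1,000 cells/well; 4 h culture; + compound; + HCVcc-Cre (~0.5 moi); 44 h; luciferase substrate, RT 15 min; read 15 sec.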
Potency means the concentration at half of the fitted maximal effect; tags describe the fitted curve by direction and shape.

Row | SMILES | Potency
1 | CC(=O)Nc1ccc(-c2csc(-c3cccnc3)n2)cc1 | inconclusive [inhibitor, single point]
2 | COc1ccc(-c2c(C)oc3c(CN4CCCC(C)C4)c(O)ccc3c2=O)cc1OC (stereo not drawn) | inactive
3 | Cc1nc(Oc2ccccc2)c2ccccc2n1 | inactive
4 | O=C(CN1CCOCC1)Nc1ccc(Oc2ccccc2)cc1 | inactive
5 | Cc1ccc(-c2nc(NCc3ccc(F)cc3)n(S(C)(=O)=O)n2)cc1 | inconclusive [inhibitor, single point]
6 | O=C(CNc1cccc(S(=O)(=O)N2CCCC2)c1)Nc1cccc(Br)c1 | inconclusive [inhibitor, partial curve]
7 | Cc1ccc(NC(=O)Nc2sc(=S)n(C)c2C)cc1 | inconclusive [inhibitor, partial curve]
8 | CC(C)C(NS(=O)(=O)c1ccc2c(c1)C(C)(C)C(=O)N2C)C(=O)NCc1ccccc1Cl (stereo not drawn) | inactive
9 | Cc1ccc(Nc2nc(-c3ccc(S(=O)(=O)N4CCOCC4)cc3)cs2)cc1 | inconclusive [inhibitor, partial curve, poor fit]
10 | COc1cc(OC)c2c(-c3cccc(-c4ccc(F)c(Cl)c4)c3)cc(=O)oc2c1 | inconclusive [inhibitor, single point]
11 | COc1ccc(C2=CC(c3ccc(Cl)cc3)n3cnnc3N2)cc1OC (stereo not drawn) | inactive
12 | CCn1c(C)nc2cc(C(=O)NNC(=S)Nc3ccccc3Cl)ccc21 | inactive
13 | C=CCC[C@@H](Cc1ccc(F)cc1)C(=O)OC[C@H](Cc1c[nH]c2ccccc12)NC(=O)[C@@H](CC=C)CC(=O)N[C@@H](CO)Cc1ccccc1 | inconclusive [inhibitor, partial curve]
14 | COc1ccccc1/C=C/C(=O)Nc1ccc2c(c1)CCC2 | inconclusive [inhibitor, full curve, poor fit]
15 | COc1cc(/C=N/NC(=O)c2ccc(Cl)c(S(N)(=O)=O)c2)ccc1OCC(N)=O | inactive
16 | O=C(c1ccco1)N1CCN(C(c2ccccc2Cl)c2nnnn2Cc2cccs2)CC1 (stereo not drawn) | inconclusive [inhibitor, single point]
17 | COc1cc2c(cc1OC)-c1c3c(cc4c1[C@@H](C2)N(C)CC4)OCO3 | inconclusive [inhibitor, single point]
18 | Cc1ccc2nc(SCC(=O)Nc3cccc(S(=O)(=O)N(C)C)c3)[nH]c2c1 | inconclusive [inhibitor, partial curve]
19 | O=C(NC1CCCCC1)C1CCCN1S(=O)(=O)c1ccc(F)cc1 (stereo not drawn) | inactive
20 | N#Cc1c(Cl)nc(N/N=C/c2ccccc2)c(Cl)c1Cl | inactive
21 | O=C(NCC1CCCN1S(=O)(=O)c1cccs1)c1c(F)cccc1F (stereo not drawn) | inconclusive [inhibitor, single point]
22 | Cc1cc(-c2ccccc2)nc(N(C)NC(=O)c2c(F)cccc2F)c1S(C)(=O)=O | inconclusive [inhibitor, single point]

Row | SMILES | Potency
23 | O=C(Cn1cnc2c(cnn2-c2ccc(F)cc2)c1=O)N1CCCc2ccccc21 | inconclusive [inhibitor, single point]
24 | CN(C)C(CNC(=O)CCCN1C(=O)c2cccc3cccc(c23)C1=O)c1ccccc1 (stereo not drawn) | inconclusive [inhibitor, partial curve]
25 | Cc1ccc(CN2CC(C(=O)Nc3ncc(C)s3)CC2=O)cc1 (stereo not drawn) | inconclusive [inhibitor, partial curve]
26 | CCCn1c(SCC(=O)N2c3ccccc3Sc3ccccc32)nc2c1c(=O)n(C)c(=O)n2C | inconclusive [inhibitor, partial curve]
27 | O=C(N/N=C/c1cccc([N+](=O)[O-])c1)C1CC(=O)N(c2ccc(F)cc2)C1 (stereo not drawn) | inactive
28 | COc1ccc(-c2cc3ccccc3n2CC(O)CN2CCCCC2)cc1 (stereo not drawn) | inactive
29 | COC(=O)Cn1c(=NC(=O)c2sc3ccccc3c2Cl)sc2cc(S(N)(=O)=O)ccc21 | inconclusive [inhibitor, full curve, poor fit]
30 | O=C(Cc1csc(NC(=O)Nc2ccc(Cl)cc2)n1)NC1CCCC1 | active: 7.08 µM
31 | CC(=O)Oc1ccc(-c2nc3cc(Cl)ccc3c(=O)o2)cc1 | inactive
32 | O=C(Nc1ccccc1N1CCN(C(=O)c2ccc(Cl)cc2)CC1)c1cccc([N+](=O)[O-])c1 | inconclusive [inhibitor, partial curve]
33 | CN(CC(=O)Nc1ccc(OC(F)(F)F)cc1)C(=O)/C=C/c1cc2c(cc1[N+](=O)[O-])OCO2 | inconclusive [inhibitor, full curve, poor fit]
34 | CN1CCN(S(=O)(=O)c2cnccc2N2CCN(c3cccc(Cl)c3)CC2)CC1 | inconclusive [inhibitor, single point]
35 | CCOC(=O)/C=C1\CN(Cc2ccc(OC)cc2)S(=O)(=O)c2ccccc21 | inconclusive [inhibitor, single point]
36 | COc1ccc(C2C3=C(N=C4SCC(=O)N42)c2ccccc2CC3)cc1OC (stereo not drawn) | inactive
37 | O=C(Nc1ccncc1)c1ccc2c(c1)S(=O)(=O)c1ccccc1C2=O | inconclusive [inhibitor, partial curve]
38 | NC(=O)N/N=C/c1ccccc1OCC(=O)NCc1ccccc1 | inactive
39 | COc1ccc(-c2csc(N(CC3CCCO3)C(=O)c3ccc(C)cc3)n2)cc1 (stereo not drawn) | inconclusive [inhibitor, partial curve]
40 | CCOC(=O)N1CCC(NC(=O)c2cc(C(=O)Nc3cccc(C(F)(F)F)c3)ccc2CO)CC1 | active: 12.6 µM
41 | Cc1ccc(-c2nc3ccc([N+](=O)[O-])cc3[nH]2)cc1 | inconclusive [inhibitor, partial curve]
42 | Cc1noc(/C=C/N(C)C)c1S(=O)(=O)N1CCCC(C(=O)N2CCCCC2)C1 (stereo not drawn) | inactive
43 | COc1cc2c(cc1OC)C1=NC(=O)CN1C(SCc1ccc(C)cc1)=N2 | inconclusive [inhibitor, partial curve]
